Screen size: about 410,000 compounds; about 6,400 (1.6%) were called active. Inconclusive means that the source gave no clear call. Such entries were picked first, then a sample of the others. Calls follow the shape of the dose curve; as a rule, active = well fitted inhibition curve with a large enough effect; inconclusive = small, poorly fitted or top-dose-only effect; inactive = no such curve, though single readings can be large or run the other way. No potency is given beside an inconclusive call; the fits are too rough.
What follows are compounds tested against Glucagon-like peptide 1 receptor (Homo sapiens) (UniProt P43220) (assay: qHTS of GLP-1 Receptor Inverse Agonists (Inhibition Mode)). Settings: HEK293 GLP-1R CRE-luciferase, luminescence, 24 h, GLP-1R form is constitutively active; activity change, negative = inhibition: at 38.3 µM (top of the series) unless noted.
Outline: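 Luminescence readout: a drop in cAMP-driven luciferase signal flags inverse agonism at a constitutively active GLP-1R stably expressed in HEK293. Compound exposure lasted 24 hr at 37 deg C, 5% CO2.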
% is scaled to controls: 0 for no effect and ±100 for the full control effect; potency is read from the fitted curve at half-maximal effect; tags tell the direction and shape of the fitted curve.
Also: nearly all actives have a fitted effect of over 55% in size.

UniProt P43220, sequence (P43220 whole entry, looked up): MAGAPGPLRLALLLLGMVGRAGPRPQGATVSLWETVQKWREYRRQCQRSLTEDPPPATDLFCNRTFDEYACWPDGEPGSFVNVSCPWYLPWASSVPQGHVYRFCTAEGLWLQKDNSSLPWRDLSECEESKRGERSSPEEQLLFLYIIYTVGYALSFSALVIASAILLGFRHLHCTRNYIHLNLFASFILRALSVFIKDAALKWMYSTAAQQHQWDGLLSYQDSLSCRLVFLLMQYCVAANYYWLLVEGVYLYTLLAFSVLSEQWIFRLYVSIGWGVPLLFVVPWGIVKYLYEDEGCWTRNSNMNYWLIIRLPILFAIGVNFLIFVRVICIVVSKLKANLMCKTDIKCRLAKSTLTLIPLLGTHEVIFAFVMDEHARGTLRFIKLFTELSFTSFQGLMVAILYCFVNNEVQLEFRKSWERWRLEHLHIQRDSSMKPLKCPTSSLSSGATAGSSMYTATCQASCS

Q: For `CCOc1cc(CNC2CCCC2)ccc1OCc1ccccc1Cl`, which Potency is on record?
A: The Potency was inconclusive [inhibitor, partial curve, poor fit].

Q: With `Cc1cccc(-c2nc(CS(=O)CC(=O)NCCc3ccc(Cl)cc3)c(C)o2)c1` (centres undefined) as the compound, how does the Potency read?
A: Its Potency is inconclusive [inhibitor, partial curve, poor fit].

Q: How did the Potency turn out when `COc1ccc(S(=O)(=O)N2CCCCCC2)cc1N(C)S(=O)(=O)c1ccccc1` was run?
A: Its Potency is inconclusive [inhibitor, single point].

Q: With `CSc1nnc(NC(=O)c2nc(S(=O)(=O)Cc3ccc(C)cc3)ncc2Cl)s1` as the compound, how does the Potency read?
A: Its Potency is inconclusive [inhibitor, single point].

Q: How did the Potency turn out when `CC(C)=CCC/C(C)=C/Cc1c(O)ccc(C(=O)/C=C/c2ccc(O)cc2)c1O` was run?
A: Its Potency is inconclusive [inhibitor, single point].

Q: How did the “activity change, negative = inhibition” value turn out when `CC(=O)c1cccc(NC(=O)CN2C(=O)CN(C)C(=O)c3ccccc32)c1` was run?
A: Its value is inactive: 7.88%.

Q: How did the Potency turn out when `CC1=C(C(=O)N(C(C)C)C(C)C)CC(CC(=O)NC(c2ccccc2)c2ccccc2)C(=O)N1Cc1ccc(C(C)(C)C)cc1` (centres undefined) was run?
A: The Potency was inconclusive [inhibitor, partial curve, poor fit].

Q: With `S=C(NCc1ccc(Cl)cc1)Nc1ccccc1Cl` as the compound, how does the Potency read?
A: Its Potency is inconclusive [inhibitor, single point].

Q: Which Potency does the source give for `CCC(=O)OCCNc1cc(Sc2nc3ccccc3[nH]2)c2nonc2c1[N+](=O)[O-]` here?
A: The Potency was inconclusive [inhibitor, single point].

Q: `CC(=O)C1=C(O)C(=O)N(CCc2c[nH]c3ccccc23)C1c1ccc(C)cc1` (centres undefined) was tested. Which Potency did it give?
A: The Potency was inconclusive [inhibitor, single point].

Q: Which Potency does the source give for `CCCC(=O)C1=C(O)C(C(=O)OC)C(C)(C)CC1=Nc1ccc(C)cc1` (centres undefined) here?
A: The Potency was inconclusive [inhibitor, single point].

Q: How did the Potency turn out when `CCCN1CCc2c(sc(NC(=O)CCS(=O)(=O)c3ccccc3)c2C(N)=O)C1` was run?
A: The Potency was inconclusive [inhibitor, partial curve, poor fit].

Q: With `CC(Cc1cccnc1)NC(=O)c1cc(COc2ccc(F)cc2F)on1` (centres undefined) as the compound, how does the Potency read?
A: The Potency was inconclusive [inhibitor, partial curve].

Q: How did the “activity change, negative = inhibition” value turn out when `CCOc1ccc(/C=C2\SC(=S)NC2=O)cc1OC` was run?
A: The value was inactive: 67%.

Q: How did the Potency turn out when `Cc1ccc(NS(=O)(=O)c2cc(NC(=O)C(C)Oc3ccccc3)ccc2C)c(C)c1` (centres undefined) was run?
A: The Potency was active: 10 µM.

Q: `CCn1ccc2cc(S(=O)(=O)N3CCCN(C(=O)Nc4ccc(C)cc4)CC3)ccc21` was tested. Which “activity change, negative = inhibition” value did it give?
A: The value was inactive: -22.8%.

Q: Which “activity change, negative = inhibition” value does the source give for `Cc1ccc(S(=O)(=O)c2nnn3c2nc(N2CCCCC2)c2sccc23)cc1` here?
A: The value was inactive: 28.4%.

Q: For `CCN(CC)S(=O)(=O)c1ccc(NC(=O)[C@H](CCSC)N2Cc3ccccc3C2=O)cc1`, which Potency is on record?
A: Its Potency is inconclusive [inhibitor, single point].

Q: For `COc1ccc(C(O)c2nc(-c3cccc(NC(C)=O)c3)cs2)cc1` (centres undefined), which “activity change, negative = inhibition” value is on record?
A: The value was inactive: -25.9%.

Q: `CC(=O)c1sc(NC(=O)C2CC(=O)N(Cc3ccco3)C2)nc1-c1ccccc1` (centres undefined) was tested. Which Potency did it give?
A: Its Potency is inconclusive [inhibitor, full curve, poor fit].

Q: How did the “activity change, negative = inhibition” value turn out when `OC1(c2cccc(F)c2)CCN(Cc2ccncc2)CC1` was run?
A: The value was inactive: 3.7%.

Q: With `COc1ccc(NC(=O)CN(C)C(=O)c2cc(-c3ccccc3)nc3ccccc23)cc1` as the compound, how does the Potency read?
A: Its Potency is inconclusive [inhibitor, single point].

Q: For `O=C(c1cc(COc2ccc(F)cc2F)on1)N1CCCC(c2ccccc2)C1` (centres undefined), which Potency is on record?
A: The Potency was inconclusive [inhibitor, partial curve, poor fit].

Q: `Cc1ccccc1NC(=O)OCc1cccnc1Oc1ccc(Cl)cc1` was tested. Which Potency did it give?
A: Its Potency is inconclusive [inhibitor, single point].

Q: For `COc1ccc(C(=O)On2c(-c3ccc(Br)cc3)nc3ccccc3c2=O)cc1`, which Potency is on record?
A: Its Potency is inconclusive [inhibitor, partial curve].

Q: `O=C(CN1CCc2ccccc2C1)Nc1ccccc1C(F)(F)F` was tested. Which Potency did it give?
A: The Potency was inconclusive [inhibitor, partial curve, poor fit].

Q: Which “activity change, negative = inhibition” value does the source give for `O=C(COc1ccc(Cl)cc1)Nc1nc(-c2ccc(S(=O)(=O)N3CCOCC3)cc2)cs1` here?
A: Its value is inactive: 0%.

Q: With `Cc1csc(NC(=O)CSc2nnc(-c3ccoc3C)n2CCc2ccccc2)n1` as the compound, how does the Potency read?
A: The Potency was inconclusive [inhibitor, partial curve, poor fit].

Q: For `N#Cc1c(NC(=O)CN2CCOCC2)oc(-c2ccccc2)c1-c1ccccc1`, which Potency is on record?
A: The Potency was inconclusive [inhibitor, partial curve, poor fit].

Q: For `CCC1CCc2sc(C(=O)NCc3ccccn3)cc2C1` (centres undefined), which Potency is on record?
A: Its Potency is inconclusive [inhibitor, partial curve, poor fit].

Q: With `O=C(O)COc1ccc(/C=N/NC(=O)c2ccc(-c3csc(Nc4ccc(Cl)cc4)n3)cc2)cc1` as the compound, how does the “activity change, negative = inhibition” value read?
A: Its value is inactive: 13.7%.

Q: For `COc1ccc(-n2c(CCc3ccccc3)n[nH]c2=S)cc1`, which Potency is on record?
A: Its Potency is inconclusive [inhibitor, single point].

Q: With `CCOC(=O)C1CCCN(C(=O)c2ccc3[nH]c4c(c3c2)CC(C)CC4)C1` (centres undefined) as the compound, how does the “activity change, negative = inhibition” value read?
A: The value was inactive: -39.9%.

Q: With `CC(C)C(OC(=O)c1cccs1)C(=O)NCc1ccc(F)cc1` (centres undefined) as the compound, how does the Potency read?
A: The Potency was inconclusive [inhibitor, partial curve].

Q: For `COc1ccccc1/C=C1\SC(=S)N(CCC(=O)NNC(=O)c2ccccc2O)C1=O`, which Potency is on record?
A: Its Potency is inconclusive [inhibitor, single point].

Q: With `COc1cccc(NC(=O)c2nnn(Cc3cccc(C(F)(F)F)c3)c2N)c1` as the compound, how does the Potency read?
A: The Potency was inconclusive [inhibitor, partial curve].

Q: `O=C(Nc1cccnc1)c1cccc(S(=O)(=O)N2CCc3ccccc32)c1` was tested. Which Potency did it give?
A: Its Potency is inconclusive [inhibitor, partial curve, poor fit].

Q: With `O=C(CSc1cc(Cl)ccc1Cl)NC1CCCc2ccccc21` (centres undefined) as the compound, how does the Potency read?
A: The Potency was inconclusive [inhibitor, partial curve, poor fit].

Q: For `CC(C)=CCn1c2ccc(NC(=O)Nc3cccnc3)cc2c(=O)n1C`, which “activity change, negative = inhibition” value is on record?
A: Its value is inactive: 9%.

Q: `Cc1onc(-c2c(Cl)cccc2Cl)c1C(=O)N1CCCc2ccccc21` was tested. Which Potency did it give?
A: Its Potency is inconclusive [inhibitor, single point].

Q: Which Potency does the source give for `O=C(N/N=C/c1c[nH]c2ccccc12)c1cc(Br)ccc1O` here?
A: Its Potency is inconclusive [inhibitor, single point].

Q: How did the “activity change, negative = inhibition” value turn out when `CCOCCCn1c(=S)[nH]c2ncccc2c1=O` was run?
A: Its value is inactive: 26.8%.

Q: How did the “activity change, negative = inhibition” value turn out when `Cc1ccccc1NC(=O)CCc1c(C)nc2c(c1C)c(=O)n(C)c(=O)n2C` was run?
A: The value was inactive: 7.06%.

Q: With `O=C(Nc1ccc(N2CCCCC2)c(Cl)c1)c1ccc(N2CCOCC2)c([N+](=O)[O-])c1` as the compound, how does the Potency read?
A: The Potency was inconclusive [inhibitor, partial curve, poor fit].

Q: Which Potency does the source give for `CCOC(=O)c1csc(N/N=C2\CCc3ccccc32)n1` here?
A: Its Potency is inconclusive [inhibitor, single point].

Q: `Cc1cc(C)cc(OCC(=O)N2CCc3ccccc3C2)c1` was tested. Which Potency did it give?
A: The Potency was inconclusive [inhibitor, single point].

Q: How did the Potency turn out when `CN(C(=O)c1cccc(NC(=O)Cc2ccc(NC(=O)C3CCCN(C(=O)CCc4ccccc4)C3)cc2)c1)C1CCCCC1` (centres undefined) was run?
A: Its Potency is inconclusive [inhibitor, partial curve, poor fit].

Q: How did the Potency turn out when `CCn1cc(/C=C/c2cc[n+](C)cc2)c2ccccc21` was run?
A: The Potency was inconclusive [inhibitor, partial curve].

Q: For `CCOC(=O)C(=NC1CCS(=O)(=O)C1)NNc1ccccc1Cl` (centres undefined), which Potency is on record?
A: The Potency was inconclusive [inhibitor, partial curve, poor fit].

Q: How did the Potency turn out when `O=[N+]([O-])c1ccc(Sc2cccc3cccnc23)c([N+](=O)[O-])c1` was run?
A: The Potency was inconclusive [inhibitor, full curve, poor fit].

Q: For `C=CCC1(CC=C)CCCN1C(=O)c1cc(COc2ccc(-n3cncn3)cc2)on1`, which Potency is on record?
A: Its Potency is inconclusive [inhibitor, single point].

Q: For `CCOc1ccc(NC(=O)Cn2c(=O)c(CNc3ccc(OC)cc3)cc3ccc(OC)cc32)cc1`, which “activity change, negative = inhibition” value is on record?
A: Its value is inactive: 14.6%.

Q: With `O=C(O)CCc1[nH]c2ccccc2c1Sc1ccccc1` as the compound, how does the “activity change, negative = inhibition” value read?
A: Its value is inactive: -14.5%.

Q: For `O=C(NCc1cccs1)c1cc2c(s1)-c1ccccc1OC2`, which Potency is on record?
A: Its Potency is inconclusive [inhibitor, partial curve, poor fit].

Q: How did the Potency turn out when `O=C1/C(=C/c2cccs2)CCC/C1=C\c1cccs1` was run?
A: The Potency was inconclusive [inhibitor, single point].

Q: Which Potency does the source give for `COc1ccccc1NC(=O)Nc1nc(CC(=O)NCc2c(F)cccc2F)cs1` here?
A: The Potency was inconclusive [inhibitor, partial curve, poor fit].

Q: How did the Potency turn out when `Cc1ccc(-c2cnc(NCc3c(F)cccc3Cl)n2C)cc1` was run?
A: The Potency was inconclusive [inhibitor, single point].

Q: `Cc1ccc(C)c(C(C)NC(=S)NC2CCCCC2)c1` (centres undefined) was tested. Which Potency did it give?
A: Its Potency is active: 2.82 µM.

Q: For `O=C(CCCOc1ccccc1)Nc1cccc([N+](=O)[O-])c1`, which Potency is on record?
A: The Potency was inconclusive [inhibitor, single point].

Q: How did the Potency turn out when `NS(=O)(=O)c1cccc(NC(=O)COC(=O)c2cc(-c3ccc(Cl)cc3)nc3ccccc23)c1` was run?
A: The Potency was inconclusive [inhibitor, single point].

Q: How did the Potency turn out when `Cc1nn(-c2ccc(N3CCCCC3)nn2)c(C)c1CCC(=O)Nc1ccccc1F` was run?
A: The Potency was inconclusive [inhibitor, single point].

Q: `COc1ccccc1NC(=O)c1ccccc1-c1nc(-c2ccccc2OC)no1` was tested. Which Potency did it give?
A: The Potency was inconclusive [inhibitor, single point].

Q: Which Potency does the source give for `Cc1ccc(SCC(=O)c2sc(-c3ccccc3)nc2C)cc1` here?
A: The Potency was inconclusive [inhibitor, single point].

Q: `O=C(Nc1ccc(Cl)c(Cl)c1)N(CCCN1CCOCC1)Cc1cccs1` was tested. Which Potency did it give?
A: The Potency was inconclusive [inhibitor, single point].
